Data taken from PubChem BioAssay (NCATS).
The inconclusive results got no clear call from the source; some entries with a clear call stand among them for comparison. No potency is given beside an inconclusive call; the fits are too rough. Activity calls are given as the source filed them. Calls follow the shape of the dose curve; as a rule, active = well fitted cell-killing curve with a large enough effect; inconclusive = small, poorly fitted or top-dose-only effect; inactive = flat fitted curve, though single readings scatter.

Assay: Cellular viability qHTS for adrenocortical cancer (ACC) cell line NCI-H295R (AID 1963990); also: nearly all actives have a fitted effect of over 60% in size;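 as to activity change, negative = viability loss: 0% = DMSO only wells and -100% = full killing with cytotoxic reference compound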
Conditions: CellTiter-Glo ATP luminescence, 48 h; activity change, negative = viability loss: at 46.1 µM (top of the series)
Procedure, shortened: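 IC50 and maximal efficacy derive from four-parameter logistic modelling of titration curves, with reads scaled between DMSO-only wells (0%) and doxorubicin hydrochloride (100% inhibition). Compounds spanned up to 46 uM over 48 h.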
Tags tell the direction and shape of the fitted curve.

| SMILES | Potency | activity change, negative = viability loss |
| --- | --- | --- |
| Cn1c(NC[C@@H](N)Cc2ccccc2)nc(-c2ccncc2)c(-c2ccc3ccccc3c2)c1=O | active: 31.6 µM | – |
| Cc1ncsc1-c1ccc([C@H](C)NC(=O)[C@@H]2C[C@@H](O)CN2C(=O)[C@@H](NC(=O)COCCCOCCNC(=O)C[C@@H]2N=C(c3ccc(Cl)cc3)c3c(sc(C)c3C)-n3c(C)nnc32)C(C)(C)C)cc1 | inconclusive [cytotoxic, partial curve, poor fit] | – |
| Cc1c[nH]c(/C=C2\C(=O)Nc3ccccc32)c1CCC(=O)O | – | inactive: -20.8% |
| C=C1C[C@@H]2CC[C@@]34C[C@H]5O[C@H]6[C@@H](O3)[C@H]3O[C@H](CC[C@@H]3O[C@H]6[C@H]5O4)CC(=O)C[C@@H]3[C@@H](OC)[C@@H](C[C@H](O)CN)O[C@H]3C[C@H]3O[C@@H](CC[C@@H]1O2)C[C@@H](C)C3=C | inconclusive [cytotoxic, full curve, poor fit] | – |
| CCCOc1ccccc1-c1nc2n[nH]nc2c(=O)[nH]1 | inconclusive [cytotoxic, partial curve, poor fit] | – |
| [O-][n+]1cccc(-c2nc3c(Cl)cccc3cc2[C@@H](Nc2ncnc3cccnc23)C(F)(F)F)c1 | inconclusive [cytotoxic, single point] | – |
| Nc1nc2cc(-c3ccc4ncc(C(=O)N5CCOCC5)n4c3)ccc2o1 | inconclusive [cytotoxic, partial curve, poor fit] | – |
| Nc1nc(OC(c2ccc(-c3cccc(F)c3)cc2)C(F)(F)F)cc(-c2ccc(C[C@H](N)C(=O)O)cc2)n1 (stereo partly specified) | inconclusive [cytotoxic, single point] | – |
| Nc1cccc2c(N)cccc12 | active: 39.8 µM | – |
| Cc1c(O)cccc1C(=O)NC(CSc1ccccc1)C(O)CN1CC2CCCCC2CC1C(=O)NC(C)(C)C (stereo unspecified) | active: 17.8 µM | – |
| CC(=O)Oc1ccc(C2(c3ccc(OC(C)=O)cc3)Oc3ccccc3NC2=O)cc1 | inconclusive [cytotoxic, single point] | – |
| CC1(C)C(N(O)C(=O)Nc2ccc(Cl)cc2)N(c2ccc(Cl)cc2)C(=O)N1CC(=O)N/N=C/C=C/c1ccc([N+](=O)[O-])o1 (stereo unspecified) | active: 20 µM | – |
| CCCCC/C=C\C/C=C\CCCCCCCC(=O)NC(C)c1ccccc1 (stereo unspecified) | inconclusive [cytotoxic, single point] | – |
| COC(=O)N[C@H](C(=O)N1CCC[C@H]1c1ncc(-c2ccc(-c3ccc(-c4cnc([C@@H]5CCCN5C(=O)[C@@H](NC(=O)OC)C(C)C)[nH]4)cc3)cc2)[nH]1)C(C)C | inconclusive [cytotoxic, single point] | – |
| COC(=O)[C@H]1[C@@H](O)[C@@]2(O)c3c(OC)cc(O[C@@H]4O[C@@H]([C@@H](O)CO)CO[C@H]4OC)cc3O[C@@]2(c2ccc(OC)cc2)[C@@H]1c1ccccc1 | – | inactive: -18.6% |
| Nc1cc(C(F)(F)F)ccc1S | inconclusive [cytotoxic, single point] | – |
| Cc1ccc(NS(=O)(=O)c2cccc(C#N)c2)c2[nH]cc(C#N)c12 | active: 0.112 µM | – |
| O=C(NCc1ccccc1)[C@H](Cc1ccccc1)NC(=O)[C@H]1O[C@@H]1C(=O)NCCc1ccc(O)cc1 | inconclusive [cytotoxic, single point] | – |
| Oc1cccc(-c2c3nc(c(-c4cccc(O)c4)c4ccc([nH]4)c(-c4cccc(O)c4)c4nc(c(-c5cccc(O)c5)c5ccc2[nH]5)CC4)C=C3)c1 | inconclusive [cytotoxic, single point] | – |
| NCCS | – | inactive: 0.833% |
| CC[C@@H](C)Nc1cc(C(=O)NC2CC3CCC(C2)N3c2ccc(C(=O)C3CC3)cn2)c(C)cc1C(N)=O (stereo partly specified) | active: 0.355 µM | – |
